Data as given in PubChem BioAssay AID1240 (Sanford-Burnham Center for Chemical Genomics, 2008).
Out of some 50,000 compounds screened, about 800 (1.6%) showed an effect of 50% or more. The list shows a part of the results.

target: Bcl-2-like protein 10 (Homo sapiens) (UniProt Q9HD36); assay: TR3 peptide-Bcl-B binding displacers, biochemical primary FP assay, phenotype converters (AID 1240); details: GST-Bcl-B / FITC-TR3 peptide fluorescence polarization; stronger effect = higher value; compound at 3.75 mg/L;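 also: 0% = Bcl-B with tracer peptide and DMSO and 100% = tracer peptide lacking Bcl-B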
Chain of UniProt Q9HD36 (Q9HD36 whole entry, looked up): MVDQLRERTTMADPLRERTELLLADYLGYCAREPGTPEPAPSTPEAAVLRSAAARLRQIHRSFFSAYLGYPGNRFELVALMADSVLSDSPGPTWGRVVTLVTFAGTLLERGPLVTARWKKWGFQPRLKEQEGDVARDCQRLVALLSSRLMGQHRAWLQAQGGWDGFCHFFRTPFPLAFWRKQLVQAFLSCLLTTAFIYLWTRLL

Going from `CCOc1ccccc1OCCN(CC)CC` to `CCN(C(=O)c1cc(OC)c(OC)c(OC)c1)c1ccccc1`, the displacement rises from -3.2% to -1.9%.

Going from `CC1=CC(=O)C=C/C1=N\OS(=O)(=O)c1ccccc1` to `Cc1ccc([N+](=O)[O-])cc1/C=C1/C=C(c2ccccc2)OC1=O`, the displacement falls from 25.4% to -1.9%.

First: COc1ccc(C(=O)/C=C/c2ccc(/C=C/C(=O)c3ccc(OC)cc3)cc2)cc1
Second: N/C(=N\OC(=O)COc1ccc2ccccc2c1)c1ccc(Cl)cc1
The displacement of the first is higher: 19.1% for the first, 7% for the second.

Going from `COc1ccc(OC(C)C(=O)Nc2ccc(C)c(Cl)c2)cc1` (configuration not stated) to `COc1ccc(NC(=S)NCc2ccc(Cl)cc2)cc1`, the displacement falls from 10.5% to 9%.

Going from `CC(=O)Oc1ccccc1N1C(=O)c2ccc(-c3nc4ccccc4c(=O)o3)cc2C1=O` to `O=C(Nc1cccc([N+](=O)[O-])c1)c1ccc2c(c1)C(=O)N(N1C(=O)c3ccccc3C1=O)C2=O`, the displacement falls from 13.1% to -1.8%.

First: CCOc1cccc2sc(NC(=O)c3ccc(Br)cc3)nc12
Second: CCOC(=O)c1c(NC(=O)c2ccc(Cl)cc2)sc2ccccc12
The displacement of the first is lower: 9% for the first, 39.1% for the second.

Compared with `Cc1c(NC(=O)C(C)C)cccc1-c1nc2ncccc2o1`, `O=C(Nc1ccc(-c2nc3ccccc3o2)cc1)c1cccs1` is lower in displacement: 1.5% for the first, -10.9% for the second.

First: C(=Nc1ccc(-c2nnc(-c3ccccc3)o2)cc1)c1c2ccccc2cc2ccccc12
Second: C/C(=N\Nc1nc(-c2ccc(C)cc2)nc2ccccc12)c1ccc([N+](=O)[O-])cc1
The displacement of the first is higher: 19.3% for the first, -1.5% for the second.

Going from `CCCCC(=O)Nc1ccc(C(=O)OCCC)cc1` to `CCC(=O)Nc1ccc(NC(=O)Cc2ccccc2)cc1`, the displacement rises from -6% to 8.1%.

Going from `Cc1cc(C)nc(/N=C(/N)Nc2ccccc2O)n1` to `CC(=O)c1cc(C(=O)Nc2ccc3ccccc3c2)c(C)o1`, the displacement rises from 5.3% to 11.9%.

Compared with `O=C1NC(=S)N/C1=C\c1ccccc1F`, `O=C1NC(=Nc2cccnc2)S/C1=C\c1ccccc1Cl` is lower in displacement: 6.8% for the first, 3% for the second.

First: CC(C)(C)c1ccccc1OCC(=O)Nc1nccs1
Second: C/C(=N\NC(=O)COc1ccccc1C)c1ccccc1
The displacement of the first is lower: -9.6% for the first, 2.1% for the second.

Compared with `COc1ccccc1C/C(N)=N/OC(=O)COc1ccc(C)cc1Br`, `CCc1ccccc1NC(=O)COc1ccc(Br)cc1` is higher in displacement: -7.8% for the first, -6.8% for the second.

Compared with `Cc1cc(Nc2ccccc2)nn1C(=O)c1ccc(Cl)cc1`, `CC(=O)Nc1ccc(C(=O)N2CCN(c3cccc(Cl)c3)CC2)cc1` is higher in displacement: -10.9% for the first, 9% for the second.

First: COc1ccc(N2C(=O)CC(Sc3nccc(C)n3)C2=O)cc1 (configuration not stated)
Second: CSc1ccc(/C=C2\C(=O)NC(=O)N(c3ccc(Cl)cc3)C2=O)cc1
The displacement of the first is higher: 11.9% for the first, 1.6% for the second.

Going from `N#C/C(=C(/O)CCCN1C(=O)c2ccccc2C1=O)c1nc2ccccc2[nH]1` to `CC1(C)Cc2ccccc2C(/C(=N\O)C(=O)c2ccccc2)=N1`, the displacement rises from -6.8% to 13.1%.

Compared with `O=C1C(N2CCOCC2)=C/C(=N\S(=O)(=O)c2ccc(Cl)cc2)c2ccccc21`, `Clc1ccc(-c2nc(N3CCOCC3)c3ccccc3n2)cc1` is lower in displacement: 1.6% for the first, -1% for the second.

First: CCCCn1c(O)c(C2=c3ccccc3=NC2=O)sc1=S
Second: CCOc1ccccc1NC1=C(Cl)C(=O)N(c2ccc(C)cc2)C1=O
The displacement of the first is lower: -5.3% for the first, 13.7% for the second.

Compared with `COc1cc(NC(=O)c2ccc(C(C)(C)C)cc2)c(OC)cc1NC(C)=O`, `CC(C)(C)c1ccc(Oc2c(C(F)(F)F)oc3cc(OCC(N)=O)ccc3c2=O)cc1` is lower in displacement: 2.4% for the first, -3.9% for the second.

First: COc1ccc(C(=O)N2c3c(C)cccc3C(Nc3ccccc3C)CC2C)cc1 (configuration not stated)
Second: COC(=O)C1=C(O)/C(=C/c2ccc(OCC(=O)Nc3ccccc3OC)cc2)N=C1C
The displacement of the first is lower: -6% for the first, 30.1% for the second.

First: Cc1ccc(N2C(=O)CSC2c2ccc(Cl)cc2)cc1 (configuration not stated)
Second: O=C1CC(N2CCN(c3ccccc3Cl)CC2)C(=O)N1c1ccc(Cl)cc1 (configuration not stated)
The displacement of the first is lower: -0.4% for the first, 4.5% for the second.

Compared with `CCOC(=O)c1c(NC(=O)c2nn3c(c2Cl)NC(c2cccs2)CC3C(F)(F)F)sc2c1CCC2` (configuration not stated), `Cc1ccc(OCC(=O)Nc2sc3c(c2C(N)=O)CCC(C)C3)cc1C` (configuration not stated) is lower in displacement: 10.5% for the first, 1.8% for the second.

First: Cc1sc(-c2c(C#N)c(N)nc3c2CCCCC3)cc1[N+](=O)[O-]
Second: COc1cccc(-c2nc3sc4c(c3c(=O)[nH]2)CCCC4)c1O
The displacement of the first is higher: -8.5% for the first, -17.7% for the second.

Going from `Cc1ccc(OCC(=O)Nc2c(C)cc(Br)cc2C)cc1C` to `Cc1cc(OCC(=O)Nc2ccc(I)cc2Cl)cc(C)c1Cl`, the displacement falls from 12.1% to -3.6%.

Going from `COc1ccc(O)c(C2NN=C(Cc3ccccc3)S2)c1` (configuration not stated) to `COc1cccc(NC(=O)C2COc3ccccc3O2)c1` (configuration not stated), the displacement rises from -10.6% to -1.5%.

First: COc1cccc(C(=O)Nc2cc(-c3nc4cc(Cl)cc(Cl)c4o3)ccc2C)c1
Second: Cc1onc(-c2c(F)cccc2Cl)c1C(=O)NCc1ccc(Cl)cc1
The displacement of the first is higher: 3.7% for the first, -6.9% for the second.

Going from `COc1cc(/C=C2/C(=O)NC(=S)N(c3ccccc3)C2=O)ccc1OCc1ccc([N+](=O)[O-])cc1` to `COc1cc(/C=C2\C(=O)NN(c3ccccc3)C2=O)ccc1OCc1ccccc1F`, the displacement rises from 4% to 8.9%.

Compared with `C=C(C)Cn1c(-c2cccc([N+](=O)[O-])c2)n[nH]c1=S`, `COC(=O)c1c(C)oc2ccc(NS(=O)(=O)c3cccc([N+](=O)[O-])c3)cc12` is higher in displacement: -7.3% for the first, 2% for the second.

Going from `CC(=O)c1cccc(N2C(=O)c3ccc(C(=O)c4ccc5c(c4)C(=O)N(c4cccc(C(C)=O)c4)C5=O)cc3C2=O)c1` to `CCCCOc1ccc(N2C(=O)c3ccc4c5c(ccc(c35)C2=O)CC4)cc1`, the displacement falls from 15% to -5.1%.

Compared with `OC(COCc1ccc2c(c1)OCO2)CN1CCC(Cc2ccccc2)CC1` (configuration not stated), `c1ccc(CNn2c(CN3CCOCC3)nc3ccccc32)cc1` is lower in displacement: 0.1% for the first, -2.8% for the second.

First: CCOC(=O)c1c(C)n(C)c2c(C)cc(O)c(OC(=O)CC)c12
Second: COC(=O)C1=C(C)N(C)C(C)=C(C(=O)OC)C1c1ccccc1
The displacement of the first is lower: -8.7% for the first, 7.7% for the second.

First: O=C(COc1ccc(Br)cc1)Nc1ccc2c(c1)OCO2
Second: CC(C)(C)c1ccc(S(=O)(=O)N/N=C/c2ccc3c(c2)OCO3)cc1
The displacement of the first is lower: -7.5% for the first, -7.4% for the second.

First: Cc1ccc(C(=O)N2CCN(c3ccc([N+](=O)[O-])cc3)CC2)o1
Second: O=C(c1ccco1)N1CCN(c2ccc([N+](=O)[O-])cc2Cl)CC1
The displacement of the first is higher: 13.6% for the first, -0.7% for the second.

Going from `COc1ccc(Cc2nc(-c3ccc(Cl)cc3)no2)cc1OC` to `COc1ccc(Br)cc1C(=O)Nc1ccc(Cl)cn1`, the displacement rises from 1.1% to 15.6%.

Compared with `O=c1[nH]c(=O)n(-c2ccccc2F)c(O)c1C=Nc1ccc2c(c1)OCO2`, `O=C(Nc1nc2ccc(Cl)cc2s1)c1ccccc1F` is higher in displacement: -1.3% for the first, 6.5% for the second.

Going from `O=C(Nc1c(C(=O)Nc2cccc(Cl)c2)cnn1-c1ccccc1)c1ccccc1Cl` to `CCOc1cccc(C(=O)Nc2nnc(C(c3ccccc3)c3ccccc3)s2)c1`, the displacement falls from 83% to 15.1%.

First: CN1C(C)(C)CC(NC(=O)CCC(=O)NC2CC(C)(C)N(C)C(C)(C)C2)CC1(C)C
Second: CCN(CC)C(=O)c1sc(NC(=O)COc2ccc3ccccc3c2)c(C(=O)OC(C)C)c1C
The displacement of the first is lower: 0.7% for the first, 11.4% for the second.

Going from `O=C(O)C1CCC(=O)N1C1c2ccccc2Oc2ccccc21` (configuration not stated) to `O=S(=O)(c1ccc(Br)cc1Br)N1CCN(c2ccccc2)CC1`, the displacement rises from -11.5% to 1.9%.

Going from `Cc1[nH]c2ccccc2c1/C=N/NC(=O)c1cccc(Br)c1` to `O=C(N/N=C/c1c(Cl)cccc1Cl)c1cc(-c2ccc(Br)cc2)n[nH]1`, the displacement falls from 17.2% to -13.7%.

Compared with `COc1ccc(C2Nc3ccccc3C(=O)N2Cc2ccco2)cc1COc1ccc([N+](=O)[O-])c(C)c1` (configuration not stated), `CC1=CC(C)(C)N(Cc2ccc([N+](=O)[O-])cc2)c2cc(C)ccc21` is higher in displacement: 3.3% for the first, 10% for the second.

First: COc1ccc(S(=O)(=O)Nc2c(C)cc(C)cc2C)cc1
Second: CCCc1ccc(OCC(=O)Nc2cc(S(=O)(=O)CC)ccc2O)cc1
The displacement of the first is lower: 1.1% for the first, 9.2% for the second.

First: CC1CCc2c(sc(NC(=O)c3cccc(F)c3)c2C#N)C1 (configuration not stated)
Second: CC(C)(C)C(=O)Oc1ccc2c3c(c(=O)oc2c1)CCC3
The displacement of the first is lower: -6.5% for the first, 4.5% for the second.

First: O=C(/C=C/c1ccco1)Nc1ccc(NC(=O)c2ccco2)cc1
Second: CC(=O)Nc1ccc(/C=C(/C#N)C(=O)NCc2ccco2)cc1
The displacement of the first is higher: 10.5% for the first, 9.4% for the second.

First: NC1=NC(=O)/C(=C/c2ccccc2OS(=O)(=O)c2ccc([N+](=O)[O-])cc2)S1
Second: O=[N+]([O-])c1ccc(CNC2CCCc3ccccc32)cc1 (configuration not stated)
The displacement of the first is lower: -5.2% for the first, -1.1% for the second.

Going from `O=C(NCc1cccnc1)C(=O)Nc1ccc(Cl)c(C(F)(F)F)c1` to `O=C(/C=C/c1ccc([N+](=O)[O-])cc1)Nc1ccc(Cl)c(Cl)c1`, the displacement rises from -8.3% to -5%.

First: C/C(=N\NC(=O)Cc1ccc(Cl)cc1)c1ccc(Cl)s1
Second: N/C(Cc1ccc([N+](=O)[O-])cc1)=N\OC(=O)c1cccc(I)c1
The displacement of the first is lower: 4.5% for the first, 12.3% for the second.

Going from `Cc1cc(C)n(-c2cc(N3CCOCC3)ncn2)n1` to `O=C(CN1CCOCC1)NCC1COc2ccccc2O1` (configuration not stated), the displacement falls from -8.6% to -15.8%.

Going from `CCOC(=O)/C(=C/Nc1c(C)n(C)n(-c2ccccc2)c1=O)[N+](=O)[O-]` to `CSCCC(NC(=O)c1ccccc1)C(=O)OCC(=O)Nc1cc(C)on1` (configuration not stated), the displacement rises from -6.8% to 6.4%.

First: O=C1OC(c2cccc(F)c2)=N/C1=C\c1ccc(F)cc1
Second: Cc1nn(-c2ccccc2)c2c1C(c1cccc(O)c1)C(C#N)=C(N)O2 (configuration not stated)
The displacement of the first is lower: -2.2% for the first, 3.7% for the second.

Going from `CS(=O)(=O)N(CC(=O)NCCc1ccccc1)c1cc(Cl)cc(Cl)c1` to `O=[N+]([O-])c1ccc(Cl)cc1NCCc1ccccc1`, the displacement rises from 11.3% to 14.5%.

Compared with `Cc1cc(/C=N/NC(N)=O)c(C)n1C1CCCCC1`, `COc1ccc(S(=O)(=O)N2CCN(C3CCCC(C)C3)CC2)cc1` (configuration not stated) is lower in displacement: 29.3% for the first, 10.6% for the second.

Going from `CCOC(=O)C1CCN(C(=O)c2ccc(C#Cc3ccccc3)cc2)CC1` to `c1ccc(Oc2cccc(OCCCCCCN3CCOCC3)c2)cc1`, the displacement rises from -1.7% to 6.9%.

First: COc1ccc(C2C(C#N)=C(N)OC3=C2C(=O)CC(C)(C)C3)c2ccccc12 (configuration not stated)
Second: O=C(c1ccc2c(c1)OCCO2)N1CCN(c2ccc([N+](=O)[O-])cc2Cl)CC1
The displacement of the first is lower: -6% for the first, 1.2% for the second.

With `O=C(c1cccs1)N1CCN(c2cc(N3CCCCC3)c(F)cc2[N+](=O)[O-])CC1` the displacement was -5.9%.
